The whole screen tested about 410,000 compounds, of which about 7,200 (1.8%) were called active. The shares of active, inactive and inconclusive entries below differ from those in the screen. Calls come from the whole dose curve; as a rule, active = well fitted activation curve with a large enough effect; inconclusive = small, poorly fitted or top-dose-only effect, or another doubt; inactive = no such curve, though single readings can be large or run the other way. Potencies of inconclusive entries are left out as doubtful fits.
assay: qHTS of TDP-43 Inhibitors; settings: TDP-43 expressing yeast growth rescue, BacTiter-Glo, 24 h; growth rescue (activation): at 46.1 µM (top of the series) unless noted; note: nearly all actives have a fitted effect of over 50% in size; for growth rescue (activation): % of control where 0% means no effect
Summary of the method: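 Readout is BacTiter-Glo luminescence of cell growth, so inhibitors register as activators. TDP-43-expressing yeast at OD600=0.02 in galactose medium, after raffinose pregrowth to mid-log, were incubated with compound for 24 hr at 30 deg C.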
Potency is the fitted concentration of half-maximal effect; tags give direction and shape of the fitted curve.

| SMILES | Potency | growth rescue (activation) |
| --- | --- | --- |
| Cc1cccc(Nc2nc(N)c([N+](=O)[O-])c(NCc3ccco3)n2)c1 | active: 14.1 µM | – |
| COc1cc(C#Cc2c(-c3cncn3C)n(C)c3ccc(-c4ccc5[nH]ccc5c4)cc23)cc(OC)c1 | inconclusive [activator, single point] | – |
| CCOc1ccccc1NC(=O)Nc1nnc(N(C)Cc2ccccc2)s1 | inactive | – |
| C=C(Cl)COc1ccc2c(CCCC)cc(=O)oc2c1 | inconclusive [activator, single point] | – |
| COc1ccc(/C=C(/C(=O)c2cccs2)N2C=CC=CC2=C(C#N)C#N)cc1 | inconclusive [activator, single point] | – |
| Clc1ccc(CCNC(c2nnc(-c3ccccc3)o2)c2ccccc2Cl)cc1 (centres undefined) | inconclusive [activator, partial curve] | – |
| CC(=O)c1ccc(NC(=O)COC(=O)C2CC3C=CC2C3)cc1 (centres undefined) | inconclusive [activator, partial curve, poor fit] | – |
| COc1ccc(NC(=O)c2noc3c2CCC3)cc1 | inconclusive [activator, single point] | – |
| COc1ccc2cc(C(=O)C3CCCN(C(=O)c4cncs4)C3)ccc2c1 (centres undefined) | inconclusive [activator, single point] | – |
| CCCn1c(=O)c2c(nc3n2CCCN3CCc2ccccc2)n(C)c1=O | inconclusive [activator, single point] | – |
| Cc1ccc(N(C)S(=O)(=O)c2ccc(-c3cc(C)no3)s2)cc1 | inconclusive [activator, single point] | – |
| Cc1cc(C)c2c(-n3cccc3)c(C(=O)NCCCN3CCCCC3C)sc2n1 (centres undefined) | inactive | – |
| Cc1ccc(CCNc2ncnc(Cl)c2N)cc1 | inconclusive [activator, single point] | – |
| Clc1ncnc2scc(C3COc4ccccc4O3)c12 (centres undefined) | active: 17.8 µM | – |
| Cc1ccc(S(=O)(=O)N(CC(=O)NCc2ccco2)Cc2ccccc2F)cc1 | inconclusive [activator, partial curve] | – |
| CCOc1ccc2c(c1)c1nnc(SCC(=O)NC3CC3)nc1n2C | inactive | – |
| O=C(CCC(=O)N1CCN(c2ccccc2F)CC1)N1CCN(c2ccc(F)cc2)CC1 | inconclusive [activator, partial curve] | – |
| CCn1c(SCc2ccccc2Cl)nc(=O)c2c(C(=O)OC)cc(C3CC3)nc21 | inconclusive [activator, single point] | – |
| O=c1[nH]cnc2c1c(-c1ccccc1)cn2-c1cccc(Cl)c1 | inconclusive [activator, partial curve] | – |
| N#CCSc1nc2c(cc1C#N)CCCCCC2 | active: 15.8 µM | – |
| CC1(Cc2ccc(C(F)(F)F)o2)C(=O)Nc2cc(-c3ccc(F)cc3F)ccc21 (centres undefined) | inconclusive [activator, partial curve] | – |
| CCc1ccc2nc(N3CCN(C(=O)C(C)(C)C)CC3)sc2c1 | inconclusive [activator, partial curve] | – |

| SMILES | Potency | growth rescue (activation) |
| --- | --- | --- |
| CN(CC1COc2ccccc2O1)C(=O)c1ccc(Cl)c(S(=O)(=O)N2CCCCCC2)c1 (centres undefined) | inconclusive [activator, partial curve] | – |
| CCOC(=O)c1c(C)oc2nc(C)nc(N3CCN(c4ccccc4)CC3)c12 | inconclusive [activator, partial curve] | – |
| CC(C)[C@H]1COCCS(=O)(=O)N1Cc1ccccc1-c1cccc(Cl)c1 | inconclusive [activator, single point] | – |
| O=C(COc1cccc(Cl)c1)NCc1ccccc1 | inconclusive [activator, single point] | – |
| Clc1cccc(Nc2ncnc3ccc(Br)cc23)c1 | inconclusive [activator, single point] | – |
| O=S(=O)(Nc1ccc(C(F)(F)F)cc1)c1cccs1 | inconclusive [activator, partial curve] | – |
| CCc1ccccc1Nc1ncnc2c1nc1n2CCCC1 | inactive | – |
| CCS(=O)(=O)c1ccc2oc(SCC(=O)N3c4ccccc4CC3C)nc2c1 (centres undefined) | inconclusive [activator, single point] | – |
| N/C(=N\OC(=O)CC1CCCCC1)c1ccc(Br)cc1 | active: 7.94 µM | – |
| COc1ccc(NC(=O)C2(C)Cc3c(-c4cccc(C(F)(F)F)c4)ccnc3O2)cc1OC (centres undefined) | inconclusive [activator, partial curve] | – |
| Cc1ccc(OCC(=O)Nc2ccc(S(=O)(=O)Nc3ncccn3)cc2)c(C(C)(C)C)c1 | inactive | – |
| N#Cc1nc(COc2ccc(Cl)cc2Cl)oc1N1CCOCC1 | inconclusive [activator, single point] | – |
| CCCS(=O)(=O)N1CCN(CC2CC=CCC2)CC1 (centres undefined) | inactive | – |
| COc1ccc(CNC(=O)c2ccc(Cn3c(=O)c4cccn4c4cccnc43)cc2)cc1OC | inconclusive [activator, full curve] | – |
| Cc1ccc(-c2cc(C(=O)N3CCN(c4ccccc4O)CC3)c3ccccc3n2)o1 | inconclusive [activator, single point] | – |
| O=C(Nc1cc(NC(=O)c2ccccc2Cl)ccc1Cl)c1ccccc1 | inconclusive [activator, partial curve] | – |
| Cc1ccc2c(c1)N(C(=O)CCC(=O)NCc1ccccc1)CC(C)O2 (centres undefined) | inactive | – |
| CC1=C(C)CC2C(C1)C(=O)c1ccc(Br)cc1S2(=O)=O (centres undefined) | active: 5.01 µM | – |
| CCOC(=O)N1CCN(c2cc(N3CCOCC3)c(F)cc2[N+](=O)[O-])CC1 | inconclusive [activator, single point] | – |
| Cc1nc(-c2cccc(NC(=O)c3ccc(-n4cccn4)cc3)c2)cs1 | inconclusive [activator, full curve, poor fit] | – |
| CC1(C)Cc2cccc(OCC(=O)N3CCN(c4ccccc4Cl)CC3)c2O1 | – | inconclusive: 39.1% [activator] |
| COc1ccc(CCNC(=O)CCc2c(C)nc3cc(-c4ccccc4OC)nn3c2C)c(OC)c1 | active: 17.8 µM | – |

From PubChem BioAssay AID652104 (National Center for Advancing Translational Sciences (NCATS), 2013)
